# In all, about 360,000 compounds went through this assay and about 16,000 (4.4%) were called active. The shares of active, inactive and inconclusive entries below differ from those in the screen. Calls follow the shape of the dose curve; as a rule, active = well fitted inhibition curve with a large enough effect; inconclusive = small, poorly fitted or top-dose-only effect; inactive = no such curve, though single readings can be large or run the other way. Potencies beside an inconclusive call are fits to weak or partial responses and may not hold up.
# Target: Bromodomain adjacent to zinc finger domain protein 2B (Homo sapiens) (UniProt Q9UIF8)
# UniProt Q9UIF8, sequence (Q9UIF8 whole entry, looked up, the tested form may be a part): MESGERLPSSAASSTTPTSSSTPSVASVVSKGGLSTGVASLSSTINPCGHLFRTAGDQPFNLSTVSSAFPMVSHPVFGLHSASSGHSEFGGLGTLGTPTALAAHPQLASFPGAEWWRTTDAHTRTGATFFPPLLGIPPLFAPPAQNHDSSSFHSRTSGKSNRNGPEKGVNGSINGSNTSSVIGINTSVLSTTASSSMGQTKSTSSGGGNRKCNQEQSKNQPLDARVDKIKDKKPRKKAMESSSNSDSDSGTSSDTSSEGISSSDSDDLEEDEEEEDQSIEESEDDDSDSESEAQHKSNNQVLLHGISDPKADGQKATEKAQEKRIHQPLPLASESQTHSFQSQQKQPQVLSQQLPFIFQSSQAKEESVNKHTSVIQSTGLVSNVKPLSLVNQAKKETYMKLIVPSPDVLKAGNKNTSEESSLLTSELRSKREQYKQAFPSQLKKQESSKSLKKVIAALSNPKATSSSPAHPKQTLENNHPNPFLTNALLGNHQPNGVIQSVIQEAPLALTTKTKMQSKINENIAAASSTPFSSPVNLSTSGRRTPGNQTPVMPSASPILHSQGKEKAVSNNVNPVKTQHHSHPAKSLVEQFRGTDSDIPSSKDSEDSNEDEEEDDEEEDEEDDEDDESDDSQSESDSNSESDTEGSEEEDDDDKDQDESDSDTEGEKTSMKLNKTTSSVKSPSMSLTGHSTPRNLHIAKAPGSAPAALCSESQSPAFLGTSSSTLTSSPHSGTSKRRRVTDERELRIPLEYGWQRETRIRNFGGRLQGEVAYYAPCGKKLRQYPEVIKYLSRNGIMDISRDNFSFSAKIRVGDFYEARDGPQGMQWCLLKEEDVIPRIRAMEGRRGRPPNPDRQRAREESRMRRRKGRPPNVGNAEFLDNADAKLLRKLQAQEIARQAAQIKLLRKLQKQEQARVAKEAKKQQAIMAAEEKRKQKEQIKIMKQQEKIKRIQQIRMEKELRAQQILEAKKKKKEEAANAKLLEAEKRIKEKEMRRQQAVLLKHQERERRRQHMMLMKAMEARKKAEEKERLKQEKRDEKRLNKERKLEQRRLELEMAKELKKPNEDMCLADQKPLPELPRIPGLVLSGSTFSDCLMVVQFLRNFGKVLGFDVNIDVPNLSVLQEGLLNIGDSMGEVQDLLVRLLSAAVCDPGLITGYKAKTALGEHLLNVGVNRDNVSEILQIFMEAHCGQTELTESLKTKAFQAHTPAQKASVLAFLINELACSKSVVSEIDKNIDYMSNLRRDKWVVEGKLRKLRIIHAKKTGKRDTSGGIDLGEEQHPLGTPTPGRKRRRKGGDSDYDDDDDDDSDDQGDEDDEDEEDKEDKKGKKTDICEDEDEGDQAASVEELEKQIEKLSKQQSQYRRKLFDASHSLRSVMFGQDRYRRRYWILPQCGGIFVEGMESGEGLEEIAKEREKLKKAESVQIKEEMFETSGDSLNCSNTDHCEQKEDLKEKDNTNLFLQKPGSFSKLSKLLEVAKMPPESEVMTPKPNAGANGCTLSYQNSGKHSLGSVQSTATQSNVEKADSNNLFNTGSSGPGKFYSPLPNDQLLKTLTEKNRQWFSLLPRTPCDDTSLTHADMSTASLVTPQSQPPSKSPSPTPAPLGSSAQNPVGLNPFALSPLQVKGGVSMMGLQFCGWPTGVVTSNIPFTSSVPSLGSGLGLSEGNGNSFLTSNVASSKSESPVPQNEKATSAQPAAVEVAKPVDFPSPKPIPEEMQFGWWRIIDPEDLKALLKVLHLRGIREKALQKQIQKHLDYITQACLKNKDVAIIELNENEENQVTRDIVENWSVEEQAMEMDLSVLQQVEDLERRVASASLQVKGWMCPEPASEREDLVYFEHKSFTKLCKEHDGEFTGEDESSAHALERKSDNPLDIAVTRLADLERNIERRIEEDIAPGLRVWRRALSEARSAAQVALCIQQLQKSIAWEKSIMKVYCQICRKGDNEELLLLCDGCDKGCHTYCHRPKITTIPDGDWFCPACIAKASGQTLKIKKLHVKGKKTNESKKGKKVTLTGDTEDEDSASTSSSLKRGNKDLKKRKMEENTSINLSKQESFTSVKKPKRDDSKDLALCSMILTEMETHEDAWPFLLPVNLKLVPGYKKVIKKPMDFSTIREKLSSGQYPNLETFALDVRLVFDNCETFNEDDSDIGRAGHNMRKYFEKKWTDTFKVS
# Experiment: qHTS Assay for Inhibitors of BAZ2B; also: nearly all actives have a fitted effect of over 60% in size
# Conditions: AlphaScreen BAZ2B-H3K14Ac peptide displacement; activity change, negative = inhibition: at 114 µM (top of the series) unless noted
# How it was run: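 Multi-concentration screen (max 110 uM) measuring displacement of acetylated histone H3 peptide from BAZ2B by AlphaScreen, using 50 nM protein, 50 nM peptide and 10 ug/mL streptavidin donor plus Ni-chelate acceptor beads.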
# % is scaled to controls: 0 for no effect and ±100 for the full control effect; potency is read from the fitted curve at half-maximal effect; tags tell the direction and shape of the fitted curve.
SMILES,Potency,"activity change, negative = inhibition"
CC(CCc1ccccc1)NC(=O)C1CCCN(C(=O)c2cc3sccc3n2C)C1 (centres undefined),"inconclusive: 35.5 µM [inhibitor, single point]",
Cc1[nH][nH]c(=O)c1C(c1ccc(-c2ccc(Cl)cc2Cl)o1)c1c(C)[nH][nH]c1=O,"inconclusive: 50.1 µM [inhibitor, partial curve]",
COc1ccc(-n2c(=O)c3ccccc3c3ccccc3c2=O)cc1,,inactive: -30%
Cc1ccc([N+](=O)[O-])c2c1C(N1CC(C)OC(C)C1)C(C)(C)O2 (centres undefined),"inconclusive: 89.1 µM [inhibitor, single point]",
Cc1onc(-c2ccccc2)c1-c1nnc(COC(=O)c2ccc(O)cc2)o1,"inconclusive: 89.1 µM [inhibitor, single point]",
CCC(=C(c1ccc(OC)cc1)c1ccc(OC)cc1)c1cn(CC(O)CN(CCO)CCO)c2ccccc12 (centres undefined),active: 35.5 µM,
CCn1c(C(O)c2ccc3c(c2)OCO3)nc2ccccc21 (centres undefined),,inactive: -25.3%
COc1ccc(NC(=O)c2cc(C3CC3)nc3c2c(C)nn3-c2ccccc2)cc1,"inconclusive: 79.4 µM [inhibitor, single point]",
CCOc1ccc(CCNC(=O)C2CC(C)=CCC2C(=O)O)cc1OCC (centres undefined),active: 50.1 µM,
CCOC(=O)C1=C(C)NC(C)=C(C(=O)OCCNC(=O)c2cccnc2)C1c1cccc([N+](=O)[O-])c1 (centres undefined),"inconclusive: 89.1 µM [inhibitor, single point]",
CCC(=O)NC1=C(Nc2ccc(N)cc2)C(=O)c2ccccc2C1=O,"inconclusive: 44.7 µM [inhibitor, partial curve]",
O=S(=O)(Nc1nc2ccccc2nc1Nc1ccc2c(c1)OCCO2)c1cccs1,active: 50.1 µM,
O=C(N/N=C/c1cccc([N+](=O)[O-])c1O)c1cccs1,active: 22.4 µM,
COCCn1c(=NC(=O)C(C)(C)C)sc2cc([N+](=O)[O-])ccc21,,inactive: -6.41%
Cc1nc2c(C(=O)NCCC3=CCCCC3)c[nH]n2c(=O)c1Cl,,inactive: 0.587%
Cc1ccc(C(=O)N/C(=C\c2cccs2)C(=O)NC2CCCCC2)cc1,"inconclusive: 100 µM [inhibitor, single point]",
COc1cccc(/C=C2\Oc3ccc(O)cc3C2=O)c1O,,inactive: -20.1%
CCOC(=O)C1=C(C)NC2=C(C(=O)c3ccccc32)C1c1cccc2ccccc12 (centres undefined),active: 35.5 µM,
O=c1c(-c2ccco2)[n+]([O-])c2ccccc2n1OCc1c(F)cccc1F,,inactive: -3.37%
O=c1cc(-c2ccccc2Cl)oc2c([N+](=O)[O-])c(O)cc(O)c12,"inconclusive: 50.1 µM [inhibitor, partial curve]",
C=CCn1nnnc1SCC(=O)Nc1cccc(C(F)(F)F)c1,"inconclusive: 44.7 µM [inhibitor, partial curve, poor fit]",
COc1ccc(Cc2nnc(NS(=O)(=O)c3ccc(Cl)cc3)s2)cc1OC,"inconclusive: 89.1 µM [inhibitor, single point]",
COc1ccc(C[C@H]2CN3C(=NC[C@@H]3Cc3ccccc3)N2CCNC(=O)CCC2CCCCC2)cc1,"inconclusive: 79.4 µM [inhibitor, single point]",
N#CCC(=O)c1sccc1-n1cccc1,active: 79.4 µM,
CCCCc1ccc(NC(=O)c2cc3c(=O)n4ccccc4nc3s2)cc1,,inactive: 2.41%

SMILES,Potency,"activity change, negative = inhibition"
C/C(=N\Nc1ccc2nncn2n1)c1ccccn1,active: 8.91 µM,
Cc1ccc(-c2nc3sc(CCNC(=O)c4ccc(Br)o4)c(C)n3n2)cc1,"inconclusive: 28.2 µM [inhibitor, partial curve]",
Cc1nn(-c2ccccc2)c2c1C1(C(=O)N3c4c(cccc41)C(C)CC3(C)C)C(C#N)=C(N)O2 (centres undefined),"inconclusive: 56.2 µM [inhibitor, partial curve]",
CCCn1c(/C=N/Nc2nc3ccccc3[nH]2)nc2ccccc21,"inconclusive: 5.01 µM [inhibitor, full curve]",
Cc1ccc(-c2cn3c(n2)sc2cc(C(=O)NC(C)C45CC6CC(CC(C6)C4)C5)ccc23)cc1 (centres undefined),,inactive: -4.68%
Cc1cc(=O)[nH]c(-n2[nH]c3c(c2=O)CCCC3)n1,active: 12.6 µM,
CCN(CC)P(=O)(Nc1ccc([N+](=O)[O-])cc1)c1c(C)nn(CCC#N)c1NC(=O)c1ccc(Cl)cc1 (centres undefined),,inactive: -16.3%
CC1CCC(NC(=O)COc2ccc(C(=O)c3ccccc3)cc2)CC1 (centres undefined),,inactive: -3.49%
S=C(Nc1ccccn1)NC1CCCCC1,"inconclusive: 70.8 µM [inhibitor, single point]",
CCOc1ccccc1NC(=O)CSc1ccc(-c2sc(C)nc2C)nn1,,inactive: -27.2%
O=C(COC(=O)C1=NN(c2ccccc2)C(=O)CC1)Nc1ccc([N+](=O)[O-])cc1C(F)(F)F,,inactive: -2.31%
CC1(C)C(=O)Nc2ccccc2N1C(=O)CSc1nnc2c(Cl)cc(Cl)cn12,,inactive: 6.57%
COc1cccc(C2CC(=O)N3CN(c4cccc(Cl)c4C)CSC3=C2C#N)c1OC (centres undefined),active: 25.1 µM,
Cc1ccc(NC(=O)C(c2ccccc2)N2CCN(CC(=O)NC3CC3)CC2)cc1 (centres undefined),,inactive: -1.56%
CN(C)CCCn1c(=S)[nH]c2sc3c(c2c1=O)CCCC3,"inconclusive: 56.2 µM [inhibitor, partial curve]",
Cn1c(=O)c2c(ncn2CC(=O)N/N=C/C(Cl)=C/c2ccccc2)n(C)c1=O,,inactive: -24.5%
CCOC(=O)c1sc(N2C(=O)C(O)=C(C(=O)c3ccco3)C2c2cccc([N+](=O)[O-])c2)nc1C (centres undefined),"inconclusive: 35.5 µM [inhibitor, partial curve]",
Cc1ccc(NC(=O)C2CCC(CNS(=O)(=O)c3csc(C(N)=O)c3)CC2)cc1Cl (centres undefined),,inactive: 2.72%
O=C(NNc1nc2c(F)cccc2s1)C1COc2ccccc2O1 (centres undefined),,inactive: -1.36%
CN(C)c1ccc(-c2nc3ccccn3c2/N=C/c2ccc(Br)cc2)cc1,active: 11.2 µM,
COc1cc2c(cc1OC)-c1c(OC)c(OC)cc3ccnc(c13)C2=O,active: 14.1 µM,
O=C(COC(=O)C1CCC(=O)N1)Nc1ccccc1Br (centres undefined),,inactive: -3.15%
CCN1CCN(c2ncc3c(n2)CCN(Cc2ccc(OC(C)C)cc2)C3)CC1,"inconclusive: 79.4 µM [inhibitor, single point]",
CC(C)[C@H](NC(=O)c1ccccc1F)C(=O)Nc1nc2c(s1)CCCC2,"inconclusive: 50.1 µM [inhibitor, partial curve]",
CCOc1cc(/C=C2/C(=O)ON=C2C)cc(Br)c1O,active: 15.8 µM,

SMILES,Potency,"activity change, negative = inhibition"
CCCc1[nH][nH]c(=O)c1C(c1ccc(Br)cc1)C(C#N)C#N (centres undefined),,inactive: -31.6%
CC(=O)c1csc(-c2cccc(-c3nc4ccc(Cl)cn4c3NC3CCCCC3)c2)c1,active: 56.2 µM,
COc1ccccc1/C=C/C(=O)OCC(=O)NCc1ccco1,"inconclusive: 50.1 µM [inhibitor, partial curve]",
COc1cccc(N2CCN(C3C4CC5CC(C4)CC3C5)CC2)c1 (centres undefined),"inconclusive: 0.631 µM [inhibitor, partial curve, poor fit]",
Cc1cc(C(=O)COc2ncnc3sccc23)c(C)n1C,"inconclusive: 89.1 µM [inhibitor, single point]",
CCOC(=O)N1CCc2c(sc(NCc3cc(OC)c(OC)cc3OC)c2C(=O)Nc2ccc(OCC)cc2)C1,"inconclusive: 39.8 µM [inhibitor, partial curve]",
CCOC(=O)C1=C(O)C(=O)N(CCCn2ccnc2)C1c1ccc(C)cc1 (centres undefined),"inconclusive: 79.4 µM [inhibitor, single point]",
CS(=O)(=O)N(Cc1ccco1)CC(O)Cn1c2ccccc2c2ccccc21 (centres undefined),"inconclusive: 89.1 µM [inhibitor, single point]",
CSc1ccccc1NC(=O)COc1nsnc1N1CCOCC1,"inconclusive: 39.8 µM [inhibitor, single point]",
CCCCNC(=O)CCn1nc(-c2ccc(C)cc2)c2ccccc2c1=O,,inactive: -20%
CCN(CC)C(=O)Cn1cc(SCC(=O)Nc2ccccc2C)c2ccccc21,,inactive: -9.92%
CCOC(=O)C1CCN(c2nc3cc(OC)ccc3cc2C#N)CC1,"inconclusive: 100 µM [inhibitor, single point]",
COc1ccccc1OCC(=O)Nc1ccc(N2CCCCC2)cc1,"inconclusive: 44.7 µM [inhibitor, partial curve]",
C(=C\c1ccco1)/C1=NN(c2ccccc2)C(c2ccco2)C1 (centres undefined),"inconclusive: 89.1 µM [inhibitor, single point]",
OCCc1ccc(-c2ccc(Cl)cc2)o1,"inconclusive: 79.4 µM [inhibitor, single point]",
COc1ccc(NS(=O)(=O)c2ccc3[nH]c4c(c3c2)CCCC4)cc1Cl,"inconclusive: 50.1 µM [inhibitor, partial curve]",
CCCCCn1c(-c2ccc(OC)c(OC)c2)nc2ccccc21,,inactive: 33%
CN(C)S(=O)(=O)c1cccc(N=c2scc(-c3ccc4c(c3)NC(=O)CO4)n2CC2CCCO2)c1 (centres undefined),active: 50.1 µM,
O=C(O)c1cccnc1SC1CC(=O)N(CCc2ccccc2)C1=O (centres undefined),"inconclusive: 89.1 µM [inhibitor, single point]",
CC(NCc1ccccc1)C1COc2ccccc2O1 (centres undefined),"inconclusive: 25.1 µM [inhibitor, single point]",
CC(C)c1ccc(-c2nc(N3CCCCCC3)nc3n[nH]c(N)c23)cc1,,inactive: -2.8%
COC(=O)C1=C(C)N(c2cccc(C)c2)C(=O)/C1=C\c1cccs1,active: 10 µM,
CN1c2ccsc2/C(=N/Nc2ccc(F)cc2)CS1(=O)=O,"inconclusive: 17.8 µM [inhibitor, full curve]",
Cc1c(C2=CCN(S(=O)(=O)c3ccc(Br)cc3)CC2)c2ccccc2n1C,"inconclusive: 7.94 µM [inhibitor, full curve]",

# Reference: PubChem BioAssay AID504333 (National Center for Advancing Translational Sciences (NCATS), 2011)
